Data reported in patent US9232799B2, “N-[(het)arylethyl)] pyrazole(thio)carboxamides and their heterosubstituted analogues” (BAYER INTELLECTUAL PROPERTY GMBH, priority 2010, dated 2016).

Legend:
Fusarium graminearum = experiment: microbe, parasite or virus in culture; conditions: for inhibition at 50 µM: Fusarium graminearum, read-out: % inhibition fungal growth
Description: Compounds were tested in microtiter plates in DON-inducing liquid media (1 g (NH4)2HPO4, 0.2 g MgSO4×7H2O, 3 g KH2PO4, 10 g Glycerin, 5 g NaCl and 40 g Sachharose per liter), supplemented with 10% oat extract, containing 0.5% DMSO, inoculated with a concentrated spore suspension of Fusarium graminearum to a final concentration of 2000 spores/ml.
The plate was covered and incubated at high humidity at 28° C. for 7 days.
At start and after 3 days OD measurement at OD620 multiple read per well (square: 3×3) was taken to calculate the growth inhibition.

Fusarium proliferatum = experiment: microbe, parasite or virus in culture; conditions: for inhibition at 50 µM: read-out: % inhibition fungal growth
Description: Compounds were tested in microtiter plates in fumonisin-inducing liquid media (0.5 g malt extract, 1 g yeast extract, 1 g bacto peptone, 20 g Fructose,1 g KH2PO4, 0.3 g MgSO4×7H2O, 0.3 g KCl, 0.05 g ZnSO4×7H2O and 0.01 g CuSO4×5H2O per liter) containing 0.5% DMSO, inoculated with a concentrated spore suspension of Fusarium proliferatum to a final concentration of 2000 spores/ml.
Plates were covered and incubated at high humidity at 20° C. for 5 days
At start and after 5 days OD measurement at OD620 multiple read per well (square: 3×3) was taken to calculate growth inhibition.

| SMILES | % inhibition fungal growth (Fusarium graminearum) [%] | inhibition at 50 µM (Fusarium proliferatum) [%] | inhibition at 50 µM (Fusarium graminearum) [%] | % inhibition fungal growth (Fusarium proliferatum; dose 50 μM, table O) [%] |
| --- | --- | --- | --- | --- |
| Cn1nc(C(F)F)c(C(=O)NC(C)(C)C(=O)c2ccc3ccccc3c2)c1F [Example 160] | 89 | – | – | – |
| CC(Cc1ccc(Cl)cc1)N(C(=O)c1c(C(F)F)nn(C)c1F)C1CC1 (stereo not shown) [Example 55] | 0 | – | – | – |
| CC(Cc1ncc(C(F)(F)F)cc1Cl)N(C(=O)c1c(C(F)F)nn(C)c1F)C1CC1 (stereo not shown) [Example 188, N-{1-[3-chloro-5-(trifluoromethyl)pyridin-2-yl]propan-2-yl}-N-cyclopropyl-3-(difluoromethyl)-5-fluoro-1-methyl-1H-pyrazole-4-carboxamide] | – | 74 | 95 | – |
| CC(Cc1ncc(C(F)(F)F)cc1Cl)NC(=O)c1c(C(F)F)nn(C)c1F (stereo not shown) [Example 190, N-{1-[3-chloro-5-(trifluoromethyl)pyridin-2-yl]propan-2-yl}-3-(difluoromethyl)-5-fluoro-1-methyl-1H-pyrazole-4-carboxamide] | – | 74 | 96 | – |
| Cn1nc(C(F)F)c(C(=O)NCCc2ncc(C(F)(F)F)cc2Cl)c1F [Example 187] | 85 | – | – | 75 |
| COC(c1ccc(Cl)cc1Cl)C(C)NC(=O)c1c(C(F)F)nn(C)c1F (stereo not shown) [Example 73, N-[1-(2,4-dichlorophenyl)-1-methoxypropan-2-yl]-3-(difluoromethyl)-5-fluoro-1-methyl-1H-pyrazole-4-carboxamide] | – | 86 | 100 | – |
